Laboratory results: PubChem BioAssay AID1347165 (National Center for Advancing Translational Sciences (NCATS), 2019)
Values joined by “and” are separate entries in the source; they are usually repeats but may differ in a detail not shown here. Equal entries are not always repeated. Hit rate of the full screen: of about 220,000 compounds, about 5,700 (2.6%) were called active. The inconclusive results got no clear call from the source; some entries with a clear call stand among them for comparison. The call rests on the fitted dose curve; in most records, active means well fitted inhibition curve with a large enough effect; inconclusive means small, poorly fitted or top-dose-only effect; inactive means no such curve, though single readings can be large or run the other way. Potencies beside an inconclusive call are fits to weak or partial responses and may not hold up.

target: Lysine-specific demethylase 5B (Homo sapiens) (UniProt Q9UGL1); assay: Primary screen for KDM5B Histone Demethylases FDH-coupled qHTS; details: FDH-coupled NADH fluorescence (FDH is formaldehyde dehydrogenase); activity change, negative = inhibition: at 57.7 µM (top of the series) unless noted; further: nearly all actives have a fitted effect of over 70% in size; on activity change, negative = inhibition: 0% is about no effect
UniProt Q9UGL1, sequence (Q9UGL1 whole entry, looked up): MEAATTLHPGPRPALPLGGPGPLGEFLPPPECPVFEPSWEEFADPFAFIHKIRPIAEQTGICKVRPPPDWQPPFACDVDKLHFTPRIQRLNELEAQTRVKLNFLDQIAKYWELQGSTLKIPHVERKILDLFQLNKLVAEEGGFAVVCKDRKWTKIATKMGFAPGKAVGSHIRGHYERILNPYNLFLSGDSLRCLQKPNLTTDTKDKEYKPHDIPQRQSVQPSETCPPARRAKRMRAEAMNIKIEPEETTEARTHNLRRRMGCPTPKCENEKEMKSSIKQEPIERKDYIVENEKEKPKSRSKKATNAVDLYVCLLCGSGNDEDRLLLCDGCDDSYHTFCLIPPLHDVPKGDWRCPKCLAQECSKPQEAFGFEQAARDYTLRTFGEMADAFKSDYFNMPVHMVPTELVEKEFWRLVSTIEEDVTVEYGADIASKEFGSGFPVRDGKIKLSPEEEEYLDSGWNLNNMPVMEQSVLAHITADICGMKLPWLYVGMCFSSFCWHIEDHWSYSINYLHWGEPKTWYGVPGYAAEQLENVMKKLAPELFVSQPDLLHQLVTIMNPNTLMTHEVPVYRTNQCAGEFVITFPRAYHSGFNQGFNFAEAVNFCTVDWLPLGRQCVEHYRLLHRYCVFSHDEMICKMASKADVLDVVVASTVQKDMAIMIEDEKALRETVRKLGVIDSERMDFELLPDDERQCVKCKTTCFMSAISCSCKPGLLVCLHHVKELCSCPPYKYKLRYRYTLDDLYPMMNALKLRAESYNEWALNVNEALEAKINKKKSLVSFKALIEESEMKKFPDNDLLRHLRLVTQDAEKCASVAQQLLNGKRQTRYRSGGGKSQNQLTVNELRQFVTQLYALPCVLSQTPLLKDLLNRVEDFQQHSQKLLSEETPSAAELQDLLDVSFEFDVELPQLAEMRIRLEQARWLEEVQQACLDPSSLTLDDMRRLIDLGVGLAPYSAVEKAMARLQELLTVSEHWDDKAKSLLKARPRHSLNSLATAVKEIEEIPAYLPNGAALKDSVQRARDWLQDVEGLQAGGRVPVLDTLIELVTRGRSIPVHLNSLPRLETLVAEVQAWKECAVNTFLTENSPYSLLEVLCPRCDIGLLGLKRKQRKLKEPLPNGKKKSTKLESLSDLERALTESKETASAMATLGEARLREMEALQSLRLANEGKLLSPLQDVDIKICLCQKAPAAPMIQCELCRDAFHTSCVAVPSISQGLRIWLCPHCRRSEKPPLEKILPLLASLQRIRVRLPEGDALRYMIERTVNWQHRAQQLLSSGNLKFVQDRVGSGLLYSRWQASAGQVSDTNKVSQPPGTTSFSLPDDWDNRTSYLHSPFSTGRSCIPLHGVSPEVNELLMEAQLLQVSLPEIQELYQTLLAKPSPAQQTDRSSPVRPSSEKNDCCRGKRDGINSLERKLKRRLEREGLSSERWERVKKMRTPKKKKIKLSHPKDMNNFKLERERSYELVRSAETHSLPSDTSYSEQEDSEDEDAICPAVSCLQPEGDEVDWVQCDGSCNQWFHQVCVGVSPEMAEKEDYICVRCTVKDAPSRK
Procedure, shortened: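 Measured: NADH fluorescence change, 30 min, RT. System: KDM5BΔAP 200 nM final, H3K4me3 peptide, α-KG, Fe(II), ascorbate, NAD⁺ plus FDH, pH 7.5 HEPES. Compounds: titrated, 10 min pre-incubation with enzyme.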
Potency means the concentration at half of the fitted maximal effect; tags describe the fitted curve by direction and shape.

Row | SMILES | activity change, negative = inhibition | Potency
1 | COCCO[C@H]1C(=O)N(C2CCN(C(=O)COc3ccccc3)CC2)[C@H]1c1ccncc1 | inactive: 4.51% | –
2 | COc1ccc(CNC(=O)Cn2ccn3nc4c(c3c2=O)CCCC4)cc1OC | – | inconclusive: 22.4 µM [inhibitor, single point]
3 | O=C(c1ccc2c(c1)OCO2)N1CCn2c(nn(-c3ccc(C(F)(F)F)cc3)c2=O)C1 | inactive: -23.7% [at 115 µM] | –
4 | COc1nc2nc(CC3CC3)n(C)c2cc1-c1ccncc1 | – | inconclusive: 39.8 µM [inhibitor, partial curve, poor fit]
5 | Cc1ccccc1-c1nc(SCc2cc(=O)n3nc(C(C)C)sc3n2)n[nH]1 | inactive: -13.9% | –
6 | CN1C[C@@H](NC(=O)c2cccs2)C[C@H]1c1nc(-c2ccc(F)cc2)no1 | – | inconclusive: 35.5 µM [inhibitor, single point]
7 | Cc1ccc(C(=O)N2CCCN(Cc3ccncc3)C(c3ccccc3)CC(=O)NCC2)s1 (stereo not drawn) | – | inconclusive: 15.8 µM [inhibitor, single point]
8 | O=C(COc1ccccc1)N1C[C@@H]2C[C@H](C1)c1c(NS(=O)(=O)c3ccccc3)ccc(=O)n1C2 | – | inconclusive: 28.2 µM [inhibitor, single point]
9 | COc1ccc(CC(=O)N2CCCN(c3cc(-c4ccccc4)[nH]n3)CC2)cc1OC | – | inconclusive: 28.2 µM [inhibitor, partial curve, poor fit]
10 | COc1cccc(CCC(=O)N2CCC(c3nc(C4CCOCC4)no3)C2)c1 (stereo not drawn) | – | inconclusive: 31.6 µM [inhibitor, partial curve, poor fit]
11 | O=C1c2cc(N3CCOCC3)nc(-c3ccc(F)cc3)c2CN1CC1CC1 | – | active: 39.8 µM
12 | CCNC(=O)N1Cc2[nH]cnc2C[C@H]1c1nc(-c2ccc(OC(F)(F)F)cc2)no1 | – | inconclusive: 35.5 µM [inhibitor, single point]
13 | Cn1nc(C2CCCN2)c2c(C(=O)N3CCC(F)CC3)cc(C3CC3)nc21 (stereo not drawn) | – | inconclusive: 70.8 µM [inhibitor, partial curve, poor fit]
14 | CNC(=O)c1ccc(NC(=O)C2CCCCC2)cc1 | inactive: 13.2% | –
15 | O=C(NCc1cccs1)c1ccc(CSc2nc3ccncc3n2Cc2ccccc2F)cc1 | – | inconclusive: 28.2 µM [inhibitor, single point]
16 | Cc1nc(CCN(C)c2nc(C3CCCC3)nc3c2cnn3C)no1 | inactive: 19.9% | –
17 | CC(Oc1ccc(C(F)(F)F)cc1)C(=O)NC1(C#N)CCCCC1 (stereo not drawn) | inactive: 22.6% | –
18 | Cc1ccc(N2CN(CCCN3CCOCC3)Cn3c2nc(C)c(C)c3=O)cc1 | inactive: 55.6% | –
19 | Cc1cc(=O)oc2cc(OCC(=O)NC3CCCc4c3[nH]c3ccccc43)ccc12 (stereo not drawn) | – | active: 15.8 µM
20 | Cc1ccc(SCC(=O)Nc2ccc3oc(-c4ccccc4F)nc3c2)cc1 | – | inconclusive: 35.5 µM [inhibitor, partial curve, poor fit]
21 | Nc1oc2ccccc2c(=O)c1-c1ccc(Br)cc1 | inactive: 4.96% | –
22 | CCOC(=O)c1ccccc1NC(=O)c1cnc(N2CCOCC2)c2ccccc12 | – | inconclusive: 39.8 µM [inhibitor, partial curve, poor fit]
23 | CNC(=O)CCn1ncc2cc(OCc3ccccc3-c3ccccc3COC)ccc21 | – | inconclusive: 39.8 µM [inhibitor, partial curve, poor fit]

Row | SMILES | activity change, negative = inhibition | Potency
24 | Cc1cc(C(=O)OCC(=O)Nc2ccccc2F)c2ccccc2n1 | inactive: -9.45% | –
25 | Cc1c(CC(=O)N2CCN(c3ccccc3)CC2)c(=O)oc2c(C)c(O)ccc12 | – | inconclusive: 25.1 µM [inhibitor, partial curve, poor fit]
26 | COc1ccc(-c2nn(C)c(=O)c3ccccc23)cc1NC(=O)c1ccc(Cl)cc1 | – | inconclusive: 31.6 µM [inhibitor, single point]
27 | Cc1cccc(-c2nc3cnccn3c2NCCC(=O)N(C)C)c1 | – | active: 31.6 µM
28 | Cc1cc(F)ccc1OCC(=O)c1ccc2c(c1)N(CC(=O)NC1CCCCC1)C(=O)CO2 | – | inconclusive: 28.2 µM [inhibitor, partial curve, poor fit]
29 | Cc1cc(C(=O)OCC(=O)NC(C)(C)C)c2ccccc2n1 | – | inconclusive: 28.2 µM [inhibitor, single point]
30 | CCCNC(=O)N1CCC(N2CC3CC(C2)[C@H]2CCCC(=O)N2C3)CC1 (stereo partly drawn) | – | inconclusive: 25.1 µM [inhibitor, partial curve, poor fit]
31 | Cc1ccc(NC(=O)Cn2ccn3nc(-c4ccc(F)cc4)c(CO)c3c2=O)cc1F | – | inconclusive: 22.4 µM [inhibitor, partial curve]
32 | O=C(NCc1ccccc1C(F)(F)F)c1cc2n(n1)CC(c1ccc3c(c1)OCO3)OC2 (stereo not drawn) | – | active: 31.6 µM
33 | Cc1noc(C)c1S(=O)(=O)N(C)Cc1ccc(F)cc1 | inactive: -13.5% [at 86.2 µM] | –
34 | Cc1ccc(NC(=O)c2cc3c(N4CCSCC4)nc(C)cn3n2)c(C)c1 | – | active: 31.6 µM
35 | Fc1ccc(/C=N/N=C/c2ccc(F)cc2)cc1 | inactive: 19.5% | –
36 | Cn1c(CNC(=O)c2cccc(C3CCNC3)c2)nc2ccccc21 (stereo not drawn) | inactive: -2.51% | –
37 | O=C(NCC1CC1)c1noc(-c2ccccc2F)n1 | – | active: 20 µM
38 | CCOC(=O)CNC(=O)c1cc2c(=O)n3cccc(C)c3nc2n1C | – | inconclusive: 1.78 µM [inhibitor, partial curve, poor fit]
39 | Cn1ccc2c(C(=O)NCC3CCC(=O)N3)nc(-c3ccccc3)cc21 (stereo not drawn) | inactive: -5440% [at 86.2 µM] | –
40 | O=C(Nc1ccccn1)c1ccc(C2SCCCS2)cc1 | inactive: 18% | –
41 | Cc1cc(Br)cc2c1N(Cc1ccccc1OC(C)C)C(=O)C2=O | – | inconclusive: 7.08 µM [inhibitor, partial curve, poor fit] and inconclusive: 25.1 µM [inhibitor, partial curve, poor fit]
42 | Cc1cc(C)c(S(=O)(=O)NCC(c2ccco2)S(=O)(=O)c2cccs2)c(C)c1 (stereo not drawn) | – | inconclusive: 31.6 µM [inhibitor, single point]
43 | CCOc1cc(/C=C2\C(=N)N3N=CSC3=NC2=O)ccc1OS(=O)(=O)c1ccccc1 | – | inconclusive: 28.2 µM [inhibitor, partial curve, poor fit]
44 | COc1ccc2nc(C[C@@H]3C[C@@H](C(C)C)[C@H](CNCc4ccccc4OC)C=C3C)[nH]c2c1 | – | inconclusive: 39.8 µM [inhibitor, single point]
45 | O=C(c1cc(-c2ccc(F)cc2)nc2ccccc12)N1CCC(Cc2nncn2CC2CC2)CC1 | – | active: 28.2 µM
46 | O=C(/C=C/c1ccccc1)Nc1nc2n(n1)C(c1ccc(F)cc1)C=C(c1ccccc1)N2 (stereo not drawn) | – | inconclusive: 14.1 µM [inhibitor, partial curve, poor fit]

Row | SMILES | activity change, negative = inhibition | Potency
47 | O=C(NC1CCCc2c1[nH]c1ccccc21)c1ccccn1 (stereo not drawn) | – | inconclusive: 15.8 µM [inhibitor, partial curve, poor fit]
48 | Cc1cc2ccccc2n1CC(=O)NC1CCN(CC(N)=O)CC1 | inactive: -10.5% | –
49 | Cc1ccc(C)c(OCn2ccc(C(=O)NCc3cn(C)nc3C)n2)c1 | inactive: 0.0269% | –
50 | O=C(NC1CCN(c2cc(-c3ccc(F)cc3)[nH]n2)C1)c1ccc2[nH]ccc2c1 (stereo not drawn) | – | inconclusive: 14.1 µM [inhibitor, partial curve, poor fit]
51 | C[C@@H]1OCN(C)[C@H]2C[C@H]3c4[nH]c5cccc(-c6ccc7c(c6)OCO7)c5c4CCN3C[C@@H]12 | – | inconclusive: 20 µM [inhibitor, partial curve, poor fit]
52 | COc1ccc(NC(=O)c2ccc3nc(-n4cccc4)sc3c2)cc1 | inactive: 4.22% | –
53 | CCn1c2ccccc2c2cc(NC(=O)COc3cc(C)ccc3C)ccc21 | – | inconclusive: 35.5 µM [inhibitor, partial curve, poor fit]
54 | Cc1cccc(N2CCN(C(=O)CC3CCCCN(Cc4ccccc4)C3=O)CC2)c1 (stereo not drawn) | inactive: -12.8% | –
55 | Cc1ccc2c(c1)cc(C(=O)NCc1ccccc1C)n2C | – | inconclusive: 39.8 µM [inhibitor, single point]
56 | CCc1ccc(S(=O)(=O)Nc2ccc(N3CCCS3(=O)=O)cc2)s1 | inactive: 7.26% | –
57 | O=C(O)c1cnc(NCc2ccccn2)nc1-c1ccncc1 | – | inconclusive: 28.2 µM [inhibitor, partial curve, poor fit]
58 | CCn1c(-n2nc(C)cc2C)nc2c1c(=O)n(Cc1ccc(F)cc1)c(=O)n2C | inactive: 17.4% | –
59 | Cc1cc(Cl)ccc1-c1ccc(C=O)cc1 | – | active: 79.4 µM
60 | Cc1ccc2c(n1)N(C)[C@H](CO)CCN(Cc1ccc(C(F)(F)F)cc1)C2 | – | inconclusive: 39.8 µM [inhibitor, partial curve, poor fit]
61 | CCOc1ccc(C(=O)NC(C)C(=O)N2CCN(c3ccccn3)CC2)cc1 (stereo not drawn) | – | inconclusive: 25.1 µM [inhibitor, partial curve, poor fit]
62 | Cc1ccc(NC(=O)c2nn(Cc3ccccc3)c(=O)c3ccccc23)cc1Cl | inactive: 2.1% | –
63 | COc1ccc(C(=O)Nc2ccc3oc(-c4cccnc4)nc3c2)cc1OC | – | inconclusive: 25.1 µM [inhibitor, partial curve, poor fit]
64 | COc1ccc(S(=O)(=O)Oc2ccc3cc(-c4ccc(OC)c(OC)c4)c(=O)oc3c2)cc1 | inactive: -21.9% | –
65 | O=C(N/N=C/c1c2ccccc2cc2ccccc12)C1CC1 | inactive: -23.9% | –
66 | CC1Sc2c(C(C)(C)C)cc(C(C)(C)C)c(O)c2OC1=O (stereo not drawn) | – | inconclusive: 22.4 µM [inhibitor, single point]
67 | CCN1c2cc(C(=O)Nc3ccc(F)c(Cl)c3)ccc2C(=O)N2CCCCCC21 (stereo not drawn) | inactive: -5200% | –
68 | C[C@@H](NC(=O)C[C@@H]1c2nc(NC(=O)CC(C)(C)C)sc2C[C@@H]2[C@](C)(CO)[C@H](O)CC[C@]21C)c1ccccc1 | inactive: -14.3% | –
